# Measurements: the supplement of paper PMC6531468
# Some of the results follow. Values come from read counts of a selection and are noisy. Each score is taken over the longer molecules that contain the sequence shown.
# How the values were obtained:
# Experiment in all cases: 6-mer SELEX enrichment z-score vs GST control; IMP3 is the RNA-binding protein IGF2BP3; higher = more enriched by binding
# IMP3 RRM1-2 = settings: construct: RRM1-2 (1-163); SELEX round: R2
# Method: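 SELEX-seq with GST-tagged IMP3 RRM1-2 (Met1-Asn163) and an N40 RNA pool, round 2. 6-mer enrichment z-score normalised to GST SELEX. RNA written as DNA (T = U).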
# IMP3 full-length = IMP3 full-length (UniProt O00425); settings: construct: FL IMP3 (1-579); SELEX round: R4
# Method: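 SELEX-seq with GST-tagged full-length IMP3 and an N40 RNA pool, round 4. Each 6-mer is scored as an enrichment z-score of sequence tags containing it, normalised to the matching GST SELEX round. RNA written as DNA (T = U).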
# IMP3 KH1-2 = settings: construct: KH1-2 (164-376); SELEX round: R4
# Method: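 SELEX-seq with GST-tagged IMP3 KH1-2 (Pro164-Phe376) and an N40 RNA pool, round 4 (stringent 300/600 mM KCl washes). 6-mer z-score of sequence-tag enrichment normalised to the corresponding GST SELEX round; RNA k-mers written as DNA (T for U).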
# IMP3 KH3-4 = settings: construct: KH3-4 (377-579); SELEX round: R4
# Method: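 SELEX-seq with GST-tagged IMP3 KH3-4 (Pro377-Lys579) and an N40 RNA pool, round 4. 6-mer z-score of sequence-tag enrichment normalised to the corresponding GST SELEX round; RNA k-mers written as DNA (T for U).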
# Sequence of IMP3 RRM1-2 (chain, as listed by the source): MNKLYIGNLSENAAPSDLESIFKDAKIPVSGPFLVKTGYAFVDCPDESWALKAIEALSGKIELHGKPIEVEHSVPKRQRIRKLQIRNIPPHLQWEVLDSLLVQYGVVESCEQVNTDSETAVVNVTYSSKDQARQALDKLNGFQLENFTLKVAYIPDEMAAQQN
# Sequence of IMP3 KH1-2 (chain, as listed by the source): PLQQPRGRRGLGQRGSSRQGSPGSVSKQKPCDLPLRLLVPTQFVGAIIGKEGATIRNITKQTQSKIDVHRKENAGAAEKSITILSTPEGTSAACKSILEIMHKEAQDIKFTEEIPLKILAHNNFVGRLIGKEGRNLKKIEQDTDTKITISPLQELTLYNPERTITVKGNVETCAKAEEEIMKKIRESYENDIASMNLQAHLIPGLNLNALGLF
# Sequence of UniProt O00425 (O00425 whole entry): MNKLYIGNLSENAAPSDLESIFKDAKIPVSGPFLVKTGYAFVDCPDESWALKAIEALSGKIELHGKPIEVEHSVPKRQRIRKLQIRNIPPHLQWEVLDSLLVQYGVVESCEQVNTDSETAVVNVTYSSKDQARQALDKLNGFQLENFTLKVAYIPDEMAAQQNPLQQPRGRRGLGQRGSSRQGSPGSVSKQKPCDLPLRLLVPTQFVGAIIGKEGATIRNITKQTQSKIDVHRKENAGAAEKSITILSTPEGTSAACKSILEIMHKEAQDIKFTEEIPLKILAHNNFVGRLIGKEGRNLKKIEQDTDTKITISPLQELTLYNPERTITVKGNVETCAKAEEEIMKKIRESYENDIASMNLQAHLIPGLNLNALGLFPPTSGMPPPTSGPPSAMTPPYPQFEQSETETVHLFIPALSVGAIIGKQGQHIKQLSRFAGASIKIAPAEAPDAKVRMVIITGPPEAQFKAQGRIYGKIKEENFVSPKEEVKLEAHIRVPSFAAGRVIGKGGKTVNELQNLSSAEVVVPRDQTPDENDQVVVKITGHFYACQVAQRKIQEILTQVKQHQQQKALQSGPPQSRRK
# Sequence of IMP3 KH3-4 (chain, as listed by the source): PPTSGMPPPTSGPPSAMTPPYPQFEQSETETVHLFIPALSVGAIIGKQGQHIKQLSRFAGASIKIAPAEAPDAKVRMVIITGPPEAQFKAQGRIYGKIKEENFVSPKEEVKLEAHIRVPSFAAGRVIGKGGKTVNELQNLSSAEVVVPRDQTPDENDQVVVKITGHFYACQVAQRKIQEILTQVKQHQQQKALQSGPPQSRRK
Sequence,6-mer SELEX enrichment z-score (IMP3 RRM1-2),6-mer SELEX enrichment z-score (IMP3 full-length),6-mer SELEX enrichment z-score (IMP3 KH1-2),6-mer SELEX enrichment z-score (IMP3 KH3-4)
TCTTTA,0.347,0.219,0.552,0.671
CCCCTC,-0.057,-0.54,-0.041,-1.01
ATTGGA,-0.067,-0.091,0.104,0.315
AGAGAT,-0.718,-0.094,0.516,1.12
TGCCGC,-0.038,0.235,0.467,-0.139
TGCTCT,0.323,0.061,0.08,0.073
TTTTCG,0.349,-0.042,-0.001,0.134
CAGTTC,0.637,0.691,0.43,0.228
ACCAGA,-0.228,-0.842,-0.807,-1.01
AGACCG,-1.34,-0.956,-0.864,-1.25
GACGCC,-0.726,-0.492,-0.718,-1.24
CGCAGG,0.343,0.606,0.083,-0.038
CGACGC,-0.519,-0.657,-1.46,-1.73
TATTCG,0.185,0.009,0.215,0.389
AGGACA,-0.144,0.634,1.13,1.09
CCAAAG,-1.43,-1.72,-1.85,-1.94
ACTATT,0.184,0.25,1.46,1.88
ATAGAG,-0.277,0.055,0.272,0.869
ATAGTG,0.044,0.114,0.259,0.618
TCTGCT,0.389,0.156,0.284,0.142

Sequence,6-mer SELEX enrichment z-score (IMP3 RRM1-2),6-mer SELEX enrichment z-score (IMP3 full-length),6-mer SELEX enrichment z-score (IMP3 KH1-2),6-mer SELEX enrichment z-score (IMP3 KH3-4)
CCGCCT,-0.246,-0.331,-0.204,-0.683
TGTTGC,0.316,-0.172,-0.102,-0.076
CTCAGT,0.459,0.38,-0.049,-0.148
GGATCT,0.309,0.054,-0.077,0.043
CAGTAA,-0.047,0.624,0.635,0.666
CCGCGC,-0.244,0.041,-0.661,-1.11
CACAAG,1.59,0.858,-0.082,-0.325
CCCTGG,-0.374,-0.526,-0.67,-0.97
CATGCG,0.528,0.545,-0.457,-0.427
GAATTT,-0.378,-0.225,0.577,1.26
AATTTG,-0.343,-0.404,0.306,0.926
ACTAAC,0.091,-0.509,0.868,0.69
TCTATA,0.255,0.243,0.776,0.996
CAGCCC,-0.06,0.087,-0.268,-1.36
ATTATC,0.403,0.255,0.799,0.892
GCCCAC,-0.098,-0.584,-1.13,-1.82
ACTCGA,-0.22,-1.17,-1.97,-1.91
GTTAGC,0.219,0.039,-0.044,-0.023
TGTCAA,0.058,-0.169,-0.493,-0.402
CGCCAA,-0.49,-0.284,-0.544,-1.05

Sequence,6-mer SELEX enrichment z-score (IMP3 RRM1-2),6-mer SELEX enrichment z-score (IMP3 full-length),6-mer SELEX enrichment z-score (IMP3 KH1-2),6-mer SELEX enrichment z-score (IMP3 KH3-4)
CCTCTA,-0.169,-0.428,-0.123,-0.302
CAGATG,-0.155,0.365,0.423,0.529
AATTGC,-0.377,-0.461,0.204,0.365
TGCTGA,-0.186,-0.468,-0.247,-0.26
GGATGA,-0.625,0.001,0.64,0.986
AAGCGC,-0.52,-0.939,-1.56,-1.45
TGTAGC,-0.014,-0.533,-0.722,-0.562
GCACTC,0.584,0.41,-0.308,-0.572
TAATTC,0.198,0.262,1.09,1.15
GGTACG,0.105,0.263,-0.269,-0.291
ATTCCC,-0.388,-0.559,-0.022,-0.374
CTACAG,0.526,0.178,0.12,-0.123
CTAGTA,0.124,-0.235,-0.151,0.027
GGCCAA,-0.254,0.699,0.425,1.15
CAACTG,-0.244,-0.124,-0.13,-0.488
TGAATG,-0.696,-0.569,0.378,1.17
TCCCCC,-0.58,-0.563,1.01,-0.667
TCCTTT,0.215,0.177,1.06,0.839
ACATTT,1.14,1.52,1.92,1.82
TACCGA,-1.02,-1.06,-1.21,-1.47
